Measurements as given in ChEMBL document CHEMBL1961873, “Compounds: GSK PKIS; Assays: Nanosyn kinase panel” (2012).
For some assays here: Most of the strong results are listed elsewhere, so they are rarer here than in the full data. The list shows a part of the results, in another mix than the full data.

Assays:
[1] = target: Fibroblast growth factor receptor 4 (Homo sapiens) (UniProt P22455); settings: at 1 µM;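 also: reported figure is the averaged percent inhibition of FGFR4, from the GSK PKIS kinase screening panel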
Chain of UniProt P22455 (P22455 whole entry, looked up): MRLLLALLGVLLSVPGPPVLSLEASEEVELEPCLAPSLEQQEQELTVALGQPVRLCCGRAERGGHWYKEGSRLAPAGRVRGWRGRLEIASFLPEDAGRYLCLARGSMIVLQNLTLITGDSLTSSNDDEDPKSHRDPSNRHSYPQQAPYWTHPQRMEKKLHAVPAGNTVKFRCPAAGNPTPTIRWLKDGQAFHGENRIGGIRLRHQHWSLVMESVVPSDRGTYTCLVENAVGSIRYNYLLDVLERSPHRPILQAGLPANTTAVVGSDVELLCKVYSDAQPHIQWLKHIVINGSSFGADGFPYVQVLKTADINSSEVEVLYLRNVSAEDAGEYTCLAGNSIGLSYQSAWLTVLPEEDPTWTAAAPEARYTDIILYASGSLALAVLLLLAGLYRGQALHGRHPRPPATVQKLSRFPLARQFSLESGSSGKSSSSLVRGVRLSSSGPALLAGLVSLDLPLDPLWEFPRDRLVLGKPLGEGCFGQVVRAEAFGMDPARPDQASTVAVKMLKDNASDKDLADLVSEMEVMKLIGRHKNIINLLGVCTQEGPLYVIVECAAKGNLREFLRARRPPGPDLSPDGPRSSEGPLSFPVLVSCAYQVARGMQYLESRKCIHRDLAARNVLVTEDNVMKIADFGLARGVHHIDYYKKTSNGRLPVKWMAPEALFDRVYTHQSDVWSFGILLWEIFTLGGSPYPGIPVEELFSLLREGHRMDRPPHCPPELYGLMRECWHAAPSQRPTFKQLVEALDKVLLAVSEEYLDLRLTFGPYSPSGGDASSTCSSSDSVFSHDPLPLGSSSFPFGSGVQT

[2] = target: Tyrosine-protein kinase Fgr (Homo sapiens) (UniProt P09769); settings: at 0.1 µM
Chain of UniProt P09769 (P09769 whole entry, looked up): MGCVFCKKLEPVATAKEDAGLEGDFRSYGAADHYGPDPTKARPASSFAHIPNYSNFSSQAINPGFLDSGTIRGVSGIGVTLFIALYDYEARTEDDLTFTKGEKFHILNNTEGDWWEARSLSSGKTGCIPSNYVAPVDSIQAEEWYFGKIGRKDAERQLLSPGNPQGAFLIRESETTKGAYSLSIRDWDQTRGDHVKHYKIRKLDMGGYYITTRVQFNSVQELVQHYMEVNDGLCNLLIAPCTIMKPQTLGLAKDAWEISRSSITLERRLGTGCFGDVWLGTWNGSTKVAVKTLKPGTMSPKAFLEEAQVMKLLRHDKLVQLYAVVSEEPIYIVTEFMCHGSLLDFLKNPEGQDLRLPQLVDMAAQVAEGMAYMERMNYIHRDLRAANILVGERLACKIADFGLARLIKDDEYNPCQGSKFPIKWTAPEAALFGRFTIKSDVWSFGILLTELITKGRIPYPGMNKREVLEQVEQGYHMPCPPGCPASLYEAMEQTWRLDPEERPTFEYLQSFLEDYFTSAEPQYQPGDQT

[3] = target: Tyrosine-protein kinase Fgr (Homo sapiens) (UniProt P09769); settings: at 1 µM
[4] = target: Vascular endothelial growth factor receptor 1 (Homo sapiens) (UniProt P17948); settings: at 0.1 µM
Chain of UniProt P17948 (P17948 whole entry): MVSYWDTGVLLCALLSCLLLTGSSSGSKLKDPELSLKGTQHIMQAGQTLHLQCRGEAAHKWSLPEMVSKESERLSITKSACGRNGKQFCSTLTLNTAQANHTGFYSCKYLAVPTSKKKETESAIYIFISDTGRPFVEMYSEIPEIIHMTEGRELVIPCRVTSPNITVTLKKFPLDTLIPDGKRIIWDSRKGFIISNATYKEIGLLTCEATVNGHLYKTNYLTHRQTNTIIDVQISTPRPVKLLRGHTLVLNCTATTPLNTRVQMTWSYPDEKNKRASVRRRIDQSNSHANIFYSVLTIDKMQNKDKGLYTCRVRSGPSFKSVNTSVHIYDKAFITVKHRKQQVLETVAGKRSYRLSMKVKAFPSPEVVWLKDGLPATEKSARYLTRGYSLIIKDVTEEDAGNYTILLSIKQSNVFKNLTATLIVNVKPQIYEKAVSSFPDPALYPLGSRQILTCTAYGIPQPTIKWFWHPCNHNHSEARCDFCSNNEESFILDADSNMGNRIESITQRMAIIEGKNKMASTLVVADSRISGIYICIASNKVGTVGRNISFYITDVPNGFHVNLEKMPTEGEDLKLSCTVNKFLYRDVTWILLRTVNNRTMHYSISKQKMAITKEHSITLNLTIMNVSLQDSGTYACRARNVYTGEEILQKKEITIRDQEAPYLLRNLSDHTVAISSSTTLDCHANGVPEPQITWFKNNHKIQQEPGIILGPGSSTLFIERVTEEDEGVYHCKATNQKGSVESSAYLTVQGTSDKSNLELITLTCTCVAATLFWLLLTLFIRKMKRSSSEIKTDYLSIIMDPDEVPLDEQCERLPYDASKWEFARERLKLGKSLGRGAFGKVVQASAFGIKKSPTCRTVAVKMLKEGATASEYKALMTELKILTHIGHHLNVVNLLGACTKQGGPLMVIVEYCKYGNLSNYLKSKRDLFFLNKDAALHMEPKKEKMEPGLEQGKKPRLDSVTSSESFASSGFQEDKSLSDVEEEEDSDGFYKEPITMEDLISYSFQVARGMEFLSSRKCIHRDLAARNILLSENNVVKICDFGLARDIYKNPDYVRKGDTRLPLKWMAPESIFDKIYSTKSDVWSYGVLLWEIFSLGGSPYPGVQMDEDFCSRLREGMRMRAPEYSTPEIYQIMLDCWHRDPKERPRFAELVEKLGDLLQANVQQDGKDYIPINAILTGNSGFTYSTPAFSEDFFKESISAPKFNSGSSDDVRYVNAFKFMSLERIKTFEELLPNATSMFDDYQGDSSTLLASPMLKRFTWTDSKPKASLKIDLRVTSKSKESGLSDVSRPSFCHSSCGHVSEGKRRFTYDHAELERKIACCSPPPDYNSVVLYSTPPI

[5] = target: Vascular endothelial growth factor receptor 1 (Homo sapiens) (UniProt P17948); settings: at 1 µM
[6] = target: Receptor-type tyrosine-protein kinase FLT3 (Homo sapiens) (UniProt P36888); settings: at 0.1 µM
[7] = target: Receptor-type tyrosine-protein kinase FLT3 (Homo sapiens) (UniProt P36888); settings: at 1 µM
[8] = test system: T1, Receptor-type tyrosine-protein kinase FLT3 (Homo sapiens), P36888 [D835Y]; settings: at 0.1 µM
T1 sequence (whole entry): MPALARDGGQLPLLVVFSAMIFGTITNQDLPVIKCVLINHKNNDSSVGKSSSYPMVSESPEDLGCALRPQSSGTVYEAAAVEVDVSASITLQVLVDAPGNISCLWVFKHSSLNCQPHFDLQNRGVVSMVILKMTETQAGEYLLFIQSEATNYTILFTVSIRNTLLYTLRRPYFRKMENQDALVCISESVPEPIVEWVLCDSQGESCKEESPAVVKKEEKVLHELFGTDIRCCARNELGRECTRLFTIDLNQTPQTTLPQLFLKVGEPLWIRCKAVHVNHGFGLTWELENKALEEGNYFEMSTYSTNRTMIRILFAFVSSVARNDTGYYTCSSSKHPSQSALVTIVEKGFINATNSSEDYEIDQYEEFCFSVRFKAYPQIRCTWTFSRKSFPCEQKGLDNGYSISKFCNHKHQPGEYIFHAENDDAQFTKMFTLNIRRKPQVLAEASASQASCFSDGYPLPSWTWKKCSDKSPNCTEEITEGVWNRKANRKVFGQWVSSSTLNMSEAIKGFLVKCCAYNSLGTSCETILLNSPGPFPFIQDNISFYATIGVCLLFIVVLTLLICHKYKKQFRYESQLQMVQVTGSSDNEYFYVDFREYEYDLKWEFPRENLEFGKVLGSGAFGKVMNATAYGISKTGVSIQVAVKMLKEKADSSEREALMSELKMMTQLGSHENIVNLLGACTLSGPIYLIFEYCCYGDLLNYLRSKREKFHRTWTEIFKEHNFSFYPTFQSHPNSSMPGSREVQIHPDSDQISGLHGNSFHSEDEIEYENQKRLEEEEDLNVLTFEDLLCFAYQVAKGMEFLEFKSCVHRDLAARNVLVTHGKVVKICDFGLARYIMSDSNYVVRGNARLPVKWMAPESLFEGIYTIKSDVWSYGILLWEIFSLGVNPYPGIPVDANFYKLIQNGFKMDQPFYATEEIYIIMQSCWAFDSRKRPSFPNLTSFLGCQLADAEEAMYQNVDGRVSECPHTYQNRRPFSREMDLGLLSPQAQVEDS

[9] = target: Non-receptor tyrosine-protein kinase TYK2 (Homo sapiens) (UniProt P29597); settings: at 1 µM;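 also: values are mean percent inhibition of TYK2 kinase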
Chain of UniProt P29597 (P29597 whole entry): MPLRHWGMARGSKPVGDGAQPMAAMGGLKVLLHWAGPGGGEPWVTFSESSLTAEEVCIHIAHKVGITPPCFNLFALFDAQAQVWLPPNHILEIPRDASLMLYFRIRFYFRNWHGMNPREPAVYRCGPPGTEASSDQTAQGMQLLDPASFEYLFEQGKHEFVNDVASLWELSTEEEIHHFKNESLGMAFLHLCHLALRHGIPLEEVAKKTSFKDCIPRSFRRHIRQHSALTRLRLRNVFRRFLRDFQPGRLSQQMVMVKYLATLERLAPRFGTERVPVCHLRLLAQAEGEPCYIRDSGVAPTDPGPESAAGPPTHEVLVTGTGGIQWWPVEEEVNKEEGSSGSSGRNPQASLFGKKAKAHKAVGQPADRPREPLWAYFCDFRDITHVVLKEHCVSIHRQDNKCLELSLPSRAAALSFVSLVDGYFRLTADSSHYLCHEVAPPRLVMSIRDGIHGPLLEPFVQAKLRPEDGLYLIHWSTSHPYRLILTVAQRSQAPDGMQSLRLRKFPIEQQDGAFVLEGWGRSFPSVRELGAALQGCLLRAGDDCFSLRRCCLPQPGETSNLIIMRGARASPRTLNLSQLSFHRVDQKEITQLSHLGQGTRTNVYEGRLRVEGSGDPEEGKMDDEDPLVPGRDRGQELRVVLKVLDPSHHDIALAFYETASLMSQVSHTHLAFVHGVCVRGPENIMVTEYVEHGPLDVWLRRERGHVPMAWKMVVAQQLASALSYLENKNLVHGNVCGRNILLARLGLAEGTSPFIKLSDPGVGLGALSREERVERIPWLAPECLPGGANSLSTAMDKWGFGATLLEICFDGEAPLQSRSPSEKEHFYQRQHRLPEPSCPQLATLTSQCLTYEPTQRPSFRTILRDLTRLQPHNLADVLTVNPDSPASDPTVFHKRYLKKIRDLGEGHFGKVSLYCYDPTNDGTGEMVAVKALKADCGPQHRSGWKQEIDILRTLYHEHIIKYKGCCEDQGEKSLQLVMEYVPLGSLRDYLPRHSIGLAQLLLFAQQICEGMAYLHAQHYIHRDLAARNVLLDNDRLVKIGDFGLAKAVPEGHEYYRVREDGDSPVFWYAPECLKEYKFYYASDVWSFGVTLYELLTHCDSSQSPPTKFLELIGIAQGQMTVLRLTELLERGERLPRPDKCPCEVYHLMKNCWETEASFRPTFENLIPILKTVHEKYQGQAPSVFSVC

[10] = target: T2, Tyrosine-protein kinase receptor TYRO3 (Homo sapiens) (UniProt Q06418); settings: at 0.1 µM;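 also: reported percentages are averaged inhibition values of TYRO3 kinase activity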
T2 sequence (whole entry): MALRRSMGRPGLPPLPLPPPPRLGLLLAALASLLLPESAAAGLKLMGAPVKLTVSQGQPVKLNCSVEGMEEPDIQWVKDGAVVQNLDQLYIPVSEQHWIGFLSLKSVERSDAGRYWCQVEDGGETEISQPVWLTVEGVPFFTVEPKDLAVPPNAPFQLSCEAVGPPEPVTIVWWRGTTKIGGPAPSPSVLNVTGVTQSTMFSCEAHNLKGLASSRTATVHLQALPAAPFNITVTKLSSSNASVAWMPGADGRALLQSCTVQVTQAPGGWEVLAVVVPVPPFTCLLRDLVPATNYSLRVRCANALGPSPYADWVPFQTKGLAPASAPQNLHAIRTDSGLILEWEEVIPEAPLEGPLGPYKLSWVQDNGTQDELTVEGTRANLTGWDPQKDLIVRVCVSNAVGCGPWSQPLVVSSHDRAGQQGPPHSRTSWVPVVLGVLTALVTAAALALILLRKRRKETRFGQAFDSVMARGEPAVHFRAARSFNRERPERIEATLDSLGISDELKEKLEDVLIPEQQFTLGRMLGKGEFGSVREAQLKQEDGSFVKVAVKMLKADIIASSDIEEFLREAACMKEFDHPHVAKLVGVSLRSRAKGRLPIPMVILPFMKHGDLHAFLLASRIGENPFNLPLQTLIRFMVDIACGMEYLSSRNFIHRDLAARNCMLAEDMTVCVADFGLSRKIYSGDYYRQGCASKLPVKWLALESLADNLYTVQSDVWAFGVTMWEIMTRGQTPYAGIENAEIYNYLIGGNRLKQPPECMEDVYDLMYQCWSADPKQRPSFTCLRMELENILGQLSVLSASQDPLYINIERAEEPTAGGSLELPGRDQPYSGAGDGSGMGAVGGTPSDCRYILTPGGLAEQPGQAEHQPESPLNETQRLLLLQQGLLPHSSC

Structure (SMILES)	inhibition [1]	inhibition [2]	inhibition [3]	inhibition [4]	inhibition [5]	inhibition [6]	inhibition [7]	inhibition [8]	inhibition [9]	inhibition [10]
COc1ccccc1C1=C(Nc2ccccc2)C(=O)NC1=O	2.28%	4.72%	8.83%	1.88%	3.09%	2.12%	2.33%	2.17%	-1.53%	2.44%
NC(=O)CCc1ccccc1Oc1nccc(-c2c(-c3ccc(F)cc3)ncn2C2CCNCC2)n1	-0.84%	-0.91%	-0.62%	-1.33%	-1.04%	0.65%	-1.61%	-1.18%	1.93%	-0.96%
Fc1ccc(-c2ncn(C3CCNCC3)c2-c2ccnc(Oc3cccc(F)c3)n2)cc1	3.05%	7.37%	12.1%	1.26%	0.92%	3.44%	5.14%	4.09%	-2.32%	1.36%
Cc1cccc(Oc2nccc(-c3c(-c4ccc(F)cc4)ncn3C3CCNCC3)n2)c1C	-0.15%	1.96%	4.8%	-0.2%	2.15%	4.11%	1.45%	-5.43%	-3.24%	2.09%
O=C1NC(=O)C(c2cccc([N+](=O)[O-])c2)=C1Nc1cc(Cl)c(O)c(Cl)c1	0.22%	2.75%	3.7%	-2.65%	1.09%	4.15%	3.35%	0.48%	2.74%	-0.41%
CC(C)(C)c1ccc(Oc2nccc(-c3c(-c4ccc(F)cc4)ncn3C3CCNCC3)n2)cc1	1.86%	2.61%	9.73%	0.36%	2.47%	1.73%	2.96%	-6.25%	-2.22%	1.85%
COc1ccccc1Oc1nccc(-c2c(-c3ccc(F)cc3)ncn2C2CCNCC2)n1	-0.23%	3.48%	4.97%	-1.57%	2.13%	0.78%	4.04%	-2.64%	-3.01%	1.76%
O=C1NC(=O)C(c2ccccc2Cl)=C1Nc1cc(Cl)c(O)c(Cl)c1	0.81%	1.95%	3.43%	1.02%	3.88%	2.92%	5.05%	6.78%	-5.94%	3.71%
Fc1ccc(Oc2nccc(-c3c(-c4ccc(F)cc4)ncn3C3CCNCC3)n2)cc1	-1.62%	0.72%	1.58%	1.21%	4.59%	-0.13%	3.38%	2.81%	-5.03%	2.16%
CS(=O)(=O)c1ccc(Oc2nccc(-c3c(-c4ccc(F)cc4)ncn3C3CCNCC3)n2)cc1	3.97%	1.66%	2.81%	-0.67%	0.64%	-0.64%	2.81%	-1.9%	-1.72%	2.73%
O=C1NC(=O)C(c2ccccc2)=C1Nc1ccccc1	4.63%	7.27%	10.7%	3.69%	3.39%	4.03%	4.12%	2.24%	-3.23%	2.82%
Fc1ccc(-c2ncn(C3CCNCC3)c2-c2ccnc(Oc3cccc(C(F)(F)F)c3)n2)cc1	1.92%	4.09%	6.39%	1.55%	1.06%	8.04%	5.18%	-5.75%	-2.19%	2.35%
O=C(O)c1ccc(Oc2nccc(-c3c(-c4ccc(F)cc4)ncn3C3CCNCC3)n2)cc1	2.15%	0.55%	0.29%	1.41%	1.14%	5.63%	4.03%	-3.29%	-3.71%	0.73%
Fc1ccc(-c2ncn(C3CCNCC3)c2-c2ccnc(Oc3ccc(Cl)cc3)n2)cc1	-1.06%	2.09%	2.83%	-2.5%	-2.3%	-0.48%	8.91%	1.24%	-2.89%	-0.38%
